{
  "source": "paper PMC4336329",
  "about": "(PLoS ONE, 2015)",
  "note": "Hit rate of the full screen: of about 310,000 compounds, about 14,000 (4.5%) showed an effect of 50% or more. Effects have a minus sign here. The list shows a part of the results.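 Also: peak tail current of the secondary pulse compared with the same well before compound.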",
  "data": [
    {"molecular_target": "human ether-à-go-go-related gene (hERG) potassium channel (human, UniProt Q12809)", "sequence (Q12809 whole entry, looked up)": "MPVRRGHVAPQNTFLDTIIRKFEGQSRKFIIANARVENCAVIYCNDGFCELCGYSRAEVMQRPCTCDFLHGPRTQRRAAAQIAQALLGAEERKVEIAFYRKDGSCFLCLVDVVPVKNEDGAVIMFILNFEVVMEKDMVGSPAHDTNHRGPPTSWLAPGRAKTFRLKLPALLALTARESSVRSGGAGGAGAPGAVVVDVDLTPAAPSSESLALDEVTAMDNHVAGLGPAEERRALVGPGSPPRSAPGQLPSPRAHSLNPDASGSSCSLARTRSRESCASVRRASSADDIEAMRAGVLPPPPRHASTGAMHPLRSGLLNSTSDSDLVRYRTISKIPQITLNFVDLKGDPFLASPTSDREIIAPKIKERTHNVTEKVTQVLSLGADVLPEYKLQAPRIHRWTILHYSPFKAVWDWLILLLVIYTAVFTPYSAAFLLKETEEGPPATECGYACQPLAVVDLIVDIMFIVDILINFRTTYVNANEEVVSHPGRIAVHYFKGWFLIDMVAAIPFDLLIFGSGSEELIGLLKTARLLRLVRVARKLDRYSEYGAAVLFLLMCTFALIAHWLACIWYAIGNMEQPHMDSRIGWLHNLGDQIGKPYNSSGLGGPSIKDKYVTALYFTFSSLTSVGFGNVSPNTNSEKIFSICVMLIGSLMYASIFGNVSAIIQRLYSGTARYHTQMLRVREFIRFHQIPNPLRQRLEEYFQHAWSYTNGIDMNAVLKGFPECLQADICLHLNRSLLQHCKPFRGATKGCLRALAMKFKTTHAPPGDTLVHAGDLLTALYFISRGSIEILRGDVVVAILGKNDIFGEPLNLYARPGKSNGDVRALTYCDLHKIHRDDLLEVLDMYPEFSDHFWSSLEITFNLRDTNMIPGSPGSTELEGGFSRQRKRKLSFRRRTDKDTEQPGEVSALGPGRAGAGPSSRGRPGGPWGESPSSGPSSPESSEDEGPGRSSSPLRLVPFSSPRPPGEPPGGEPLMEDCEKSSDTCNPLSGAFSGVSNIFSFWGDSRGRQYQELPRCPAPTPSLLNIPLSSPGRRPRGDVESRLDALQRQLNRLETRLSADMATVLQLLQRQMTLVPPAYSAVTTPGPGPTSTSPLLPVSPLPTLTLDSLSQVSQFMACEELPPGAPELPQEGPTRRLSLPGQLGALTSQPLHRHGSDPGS", "assay": "primary screen, population patch clamp on CHO cells stably expressing hERG", "units": {"hERG current change (%, negative = inhibition) at 10uM": "%"}, "values": [
      {"smiles": "C1=C(CCNCC2CCCCC2)CCCC1.Cl", "hERG current change (%, negative = inhibition) at 10uM": -13.3},
      {"smiles": "Oc1c(Br)cc(/C=N/n2c(-c3ccccc3)n[nH]c2=S)cc1Br", "hERG current change (%, negative = inhibition) at 10uM": 17.1},
      {"smiles": "O=[N+]([O-])c1ccc(NCCNc2ccc(Cl)nn2)cc1", "hERG current change (%, negative = inhibition) at 10uM": -45.6},
      {"smiles": "CCOC(=O)Cn1c(=O)oc2cc(S(=O)(=O)NCc3ccccn3)ccc21", "hERG current change (%, negative = inhibition) at 10uM": -9.44},
      {"smiles": "COc1ccc2[nH]c(=O)c(CN(C(=O)C3CCCO3)c3ccc(C)cc3)cc2c1", "note": "(stereo not shown)", "hERG current change (%, negative = inhibition) at 10uM": -21.2},
      {"smiles": "O=C(NCCc1ccc(Cl)cc1)C1=CC=CN2CCS(=O)(=O)N=C12", "hERG current change (%, negative = inhibition) at 10uM": -9.31},
      {"smiles": "CN(C)Cc1cnc2ccc(Cl)cn12", "hERG current change (%, negative = inhibition) at 10uM": -3.32},
      {"smiles": "Nc1nnc(SCC(=O)Nc2ccc(S(=O)(=O)N3CCOCC3)cc2)s1", "hERG current change (%, negative = inhibition) at 10uM": -9.26},
      {"smiles": "Cc1ccc(-c2noc(C3CCCN(C(=O)c4cccc([N+](=O)[O-])c4)C3)n2)o1", "note": "(stereo not shown)", "hERG current change (%, negative = inhibition) at 10uM": -65},
      {"smiles": "O=[N+]([O-])c1ccccc1S(=O)(=O)NCCC1=CCCCC1", "hERG current change (%, negative = inhibition) at 10uM": -11.5},
      {"smiles": "COc1cccc(C(=O)Nc2cccc(C(C)=O)c2)c1", "hERG current change (%, negative = inhibition) at 10uM": 10.3},
      {"smiles": "Cc1cccc(NC(=O)Nc2cc(C)on2)c1", "hERG current change (%, negative = inhibition) at 10uM": 9.14},
      {"smiles": "COc1ccc(-c2csc(NC(=O)c3cccc(N4C(=O)CCC4=O)c3)n2)cc1C", "hERG current change (%, negative = inhibition) at 10uM": 9.77},
      {"smiles": "Cc1ccc(-c2cc(C(=O)NCCN3CCOCC3)no2)cc1", "hERG current change (%, negative = inhibition) at 10uM": -14},
      {"smiles": "CCCn1c(SCC(=O)Nc2nnc(CC)s2)nnc1-c1ccco1", "hERG current change (%, negative = inhibition) at 10uM": 9.22},
      {"smiles": "Cl.O=C(CN1CCN(c2ccc(F)cc2)CC1)N1CCC(Cc2ccccc2)CC1", "hERG current change (%, negative = inhibition) at 10uM": -30.3},
      {"smiles": "COc1cccc(Oc2cn[nH]c2-c2ccc(OCC(=O)NN)cc2O)c1", "hERG current change (%, negative = inhibition) at 10uM": 4.88},
      {"smiles": "COc1cccc(-c2nc(CSCC(=O)NCC3CCCO3)c(C)o2)c1", "note": "(stereo not shown)", "hERG current change (%, negative = inhibition) at 10uM": -1.22},
      {"smiles": "COc1ccc(/C=C2\\SC(=O)N(CC(=O)Nc3ccc(F)cc3)C2=O)cc1O", "hERG current change (%, negative = inhibition) at 10uM": 15.9},
      {"smiles": "CC(C(=O)N1CCCCC1)N(C)CC(=O)Nc1ccc(Cl)cc1", "note": "(stereo not shown)", "hERG current change (%, negative = inhibition) at 10uM": 1.48},
      {"smiles": "CCOc1ccc(/C=N/NC(=O)CSc2n[nH]c(=O)[nH]c2=O)cc1OC", "hERG current change (%, negative = inhibition) at 10uM": 7.73},
      {"smiles": "Cc1oc2c(C)c(O)ccc2c(=O)c1-c1cnn(-c2ccccc2)c1", "hERG current change (%, negative = inhibition) at 10uM": 9.43},
      {"smiles": "CC(C)CC(C(=O)N1CCOCC1)N1Cc2ccccc2C1=O", "note": "(stereo not shown)", "hERG current change (%, negative = inhibition) at 10uM": 29.3},
      {"smiles": "COC(=O)CC1COc2ccccc2N1C(=O)/C=C/c1ccccc1", "note": "(stereo not shown)", "hERG current change (%, negative = inhibition) at 10uM": -13.8},
      {"smiles": "COc1ccc(CNC(=O)c2ccc(Cn3nc(C)c([N+](=O)[O-])c3C)o2)cc1", "hERG current change (%, negative = inhibition) at 10uM": -33.9},
      {"smiles": "Nc1ccccc1C(=O)NC1CCCNC1=O", "note": "(stereo not shown)", "hERG current change (%, negative = inhibition) at 10uM": 2.4},
      {"smiles": "O=C(NCCCN1CCN(CCCNC(=O)c2ccc(F)cc2)CC1)c1ccc(F)cc1", "hERG current change (%, negative = inhibition) at 10uM": -51.1},
      {"smiles": "CC12CCC(=O)N1C(C(=O)NNC(=O)c1ccc(Cl)cc1)CS2", "note": "(stereo not shown)", "hERG current change (%, negative = inhibition) at 10uM": -4.46},
      {"smiles": "Cc1cc(C)c(S(=O)(=O)Nc2cccc(C(=O)O)c2)cc1S(=O)(=O)Nc1cccc(C(=O)O)c1", "hERG current change (%, negative = inhibition) at 10uM": 18.2},
      {"smiles": "CCC(CC)c1nnc(NC(=O)CS(=O)(=O)c2ccc(C)cc2)s1", "hERG current change (%, negative = inhibition) at 10uM": 22.8},
      {"smiles": "Cc1cc(OC(=O)c2ccccc2Cl)cc(=O)n1C", "hERG current change (%, negative = inhibition) at 10uM": -29.8},
      {"smiles": "O=C(NC1CCCc2ccccc21)c1ccccc1OC(F)F", "note": "(stereo not shown)", "hERG current change (%, negative = inhibition) at 10uM": -9.69},
      {"smiles": "O=C(/C=C/c1ccc(O)cc1)c1ccc(NC2=C(N3CCCCC3)C(=O)c3ccccc3C2=O)cc1", "hERG current change (%, negative = inhibition) at 10uM": -7.85},
      {"smiles": "Cc1ccnc2nc(C(=O)OCC(=O)NC3CCC(C)CC3)nn12", "note": "(stereo not shown)", "hERG current change (%, negative = inhibition) at 10uM": -13.1},
      {"smiles": "Cc1sc2ncnc(Sc3nc4ccccc4s3)c2c1C", "hERG current change (%, negative = inhibition) at 10uM": 5.53},
      {"smiles": "O=C(O)c1sccc1SCc1ccc(Cl)c(Cl)c1", "hERG current change (%, negative = inhibition) at 10uM": 14.1},
      {"smiles": "CCC(C)NC(=O)c1n[nH]c(=O)c2ccccc12", "note": "(stereo not shown)", "hERG current change (%, negative = inhibition) at 10uM": -3.51},
      {"smiles": "COc1ccc(NC(=O)C2(S(=O)(=O)c3ccc(C)cc3)CC2)cc1OC", "hERG current change (%, negative = inhibition) at 10uM": 1.87},
      {"smiles": "CCCNC(=O)c1c(CSc2ccc(Cl)cc2)noc1C(=O)NCc1ccccc1", "hERG current change (%, negative = inhibition) at 10uM": 3.39},
      {"smiles": "Cc1ccccc1NS(=O)(=O)c1ccc2c(c1)n(C)c(=O)n2C", "hERG current change (%, negative = inhibition) at 10uM": -2.17},
      {"smiles": "CCCC1(c2ccccc2)NC(=O)N(CC(=O)Nc2sc(-c3ccccc3)cc2C(=O)OCC)C1=O", "note": "(stereo not shown)", "hERG current change (%, negative = inhibition) at 10uM": 17.9},
      {"smiles": "COc1ccc(NS(=O)(=O)c2cccc(C(=O)N3CCCCCC3)c2)cc1", "hERG current change (%, negative = inhibition) at 10uM": -14},
      {"smiles": "CCc1ccccc1NC(=O)c1sc2nc(C)cc(C)c2c1N", "hERG current change (%, negative = inhibition) at 10uM": 0.897},
      {"smiles": "C/C(=N\\NC(=O)NC1CCCCC1)c1ccc(Cl)s1", "hERG current change (%, negative = inhibition) at 10uM": 18.5},
      {"smiles": "Cc1ccc(Cl)cc1Nc1nc(N2CCOCC2)nc(N2CCOCC2)n1", "hERG current change (%, negative = inhibition) at 10uM": 2.37},
      {"smiles": "CCOc1ccccc1NC(=O)CSc1ccc([N+](=O)[O-])cc1", "hERG current change (%, negative = inhibition) at 10uM": 22.3}
    ]}
  ]
}
